This passage reports binding results from paper PMC9834408, “The SPOC domain is a phosphoserine binding module that bridges transcription machinery with co- and post-transcriptional regulators” (Nature Communications, 2023).

Results are given in words; binding and its absence hold for the method and conditions named. In cells and extracts the contact can be indirect. Some entries that bind do so weakly or less than the wild type. For part of these data: Where a sequence is shown, tags or fusion partners need not be part of it.

Holding throughout (assay): co-IP; anti-FLAG M2 beads; 3×FLAG-tagged SPOC domains, full-length or ΔSPOC proteins expressed in HEK293T; lysis in 50 mM Tris-Cl pH 8, 150 mM NaCl, 0.1% Triton with benzonase; elution with 3×FLAG peptide; western blot; performed once
Assay [1] has as its target 3×FLAG-SHARP (human), Q96T58. Particulars: remark: other sources report otherwise.
Assay [2] deals with 3×FLAG-NLS-RBM15-SPOC (human) (UniProt Q96T37).
The target of a further assay is 3×FLAG-RBM15 (human) (UniProt Q96T37).

B1: WTAP, Q15007 1-396 (protein)
chain: MTNEEPLPKKVRLSETDFKVMARDELILRWKQYEAYVQALEGKYTDLNSNDVTGLRESEEKLKQQQQESARRENILVMRLATKEQEMQECTTQIQYLKQVQQPSVAQLRSTMVDPAINLFFLKMKGELEQTKDKLEQAQNELSAWKFTPDSQTGKKLMAKCRMLIQENQELGRQLSQGRIAQLEAELALQKKYSEELKSSQDELNDFIIQLDEEVEGMQSTILVLQQQLKETRQQLAQYQQQQSQASAPSTSRTTASEPVEQSEATSKDCSRLTNGPSNGSSSRQRTSGSGFHREGNTTEDDFPSSPGNGNKSSNSSEERTGRGGSGYVNQLSAGYESVDSPTGSENSLTHQSNDTDSSHDPQEEKAVSGKGNRTVGSRHVQNGLDSSVNVQGSVL
Turning to B1, the binding result in assay [1] was “no binding”.

B2: HTATSF1 (TAT-SF1) (protein, UniProt O43719 1-755)
chain: MSGTNLDGNDEFDEQLRMQELYGDGKDGDTQTDAGGEPDSLGQQPTDTPYEWDLDKKAWFPKITEDFIATYQANYGFSNDGASSSTANVEDVHARTAEEPPQEKAPEPTDARKKGEKRKAESGWFHVEEDRNTNVYVSGLPPDITVDEFIQLMSKFGIIMRDPQTEEFKVKLYKDNQGNLKGDGLCCYLKRESVELALKLLDEDEIRGYKLHVEVAKFQLKGEYDASKKKKKCKDYKKKLSMQQKQLDWRPERRAGPSRMRHERVVIIKNMFHPMDFEDDPLVLNEIREDLRVECSKFGQIRKLLLFDRHPDGVASVSFRDPEEADYCIQTLDGRWFGGRQITAQAWDGTTDYQVEETSREREERLRGWEAFLNAPEANRGLRRSDSVSASERAGPSRARHFSEHPSTSKMNAQETATGMAFEEPIDEKKFEKTEDGGEFEEGASENNAKESSPEKEAEEGCPEKESEEGCPKRGFEGSCSQKESEEGNPVRGSEEDSPKKESKKKTLKNDCEENGLAKESEDDLNKESEEEVGPTKESEEDDSEKESDEDCSEKQSEDGSEREFEENGLEKDLDEEGSEKELHENVLDKELEENDSENSEFEDDGSEKVLDEEGSEREFDEDSDEKEEEEDTYEKVFDDESDEKEDEEYADEKGLEAADKKAEEGDADEKLFEESDDKEDEDADGKEVEDADEKLFEDDDSNEKLFDEEEDSSEKLFDDSDERGTLGGFGSVEEGPLSTGSSFILSSDDDDDDI
With B2, the binding entry (in assay [2]; with 3×FLAG-RBM15 (human)) was “binds” each time.
